# Assay results published in PubChem BioAssay AID504832 (National Center for Advancing Translational Sciences (NCATS), 2011).
# Out of some 310,000 compounds screened, about 18,000 (5.8%) were called active. The shares of active, inactive and inconclusive entries below differ from those in the screen. Calls follow the shape of the dose curve; as a rule, active = well fitted inhibition curve with a large enough effect; inconclusive = small, poorly fitted or top-dose-only effect, or another doubt; inactive = no such curve, though single readings can be large or run the other way. Potencies of inconclusive entries are left out as doubtful fits.
# Test: Primary qHTS for delayed death inhibitors of the malarial parasite plastid, 48 hour incubation
# Settings: P. falciparum luciferase growth in erythrocytes; series mostly up to 28.7 µM; activity change, negative = inhibition: at the top concentration
# Method in brief: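 Here the parasites carry a stable luciferase gene and grow inside erythrocytes in Albumax-based RPMI medium with compound for one erythrocytic cycle. Activity is scored as loss of luminescent signal.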
# % is scaled to controls: 0 for no effect and ±100 for the full control effect; potency is read from the fitted curve at half-maximal effect; tags tell the direction and shape of the fitted curve.
Compound,Potency,"activity change, negative = inhibition"
CCn1ncc(CN2CCCC(C(=O)c3cccc(OC(C)C)c3)C2)c1C (stereo not given),"inconclusive [inhibitor, single point]",–
CN(c1ccccc1)S(=O)(=O)c1cccc(C(=O)NCc2ccccc2)c1,"inconclusive [inhibitor, single point]",–
COCCn1nnnc1C(C(C)C)N(Cc1cccnc1)Cc1ccccc1Cl (stereo not given),active: 10.4 µM,–
O=C(Nc1ccccc1N1CCCC1)c1cc2ccccc2o1,"inconclusive [inhibitor, single point]",–
Cc1ncc(N=Nc2ccccc2)c(-c2ccccc2)n1,"inconclusive [inhibitor, partial curve, poor fit]",–
Cc1ccc(Cn2c(=O)c3cccnc3n(CC(=O)Nc3cccc(C(F)(F)F)c3)c2=O)cc1,"inconclusive [inhibitor, partial curve, poor fit]",–
CCCCn1c(SCn2nnc3ccccc3c2=O)nc2cc(S(N)(=O)=O)ccc21,"inconclusive [inhibitor, partial curve, poor fit]",–
O=C(Nc1ccccc1N1CCCCC1)c1ccc(OC(F)F)cc1,"inconclusive [inhibitor, single point]",–
Cc1cccc(OCCCC(=O)NNC(=O)CCN2CCN(c3ccccc3)CC2)c1,"inconclusive [inhibitor, single point]",–
CCn1c(=O)c2cc(C(=O)Nc3ccccc3OC)sc2c2ccccc21,"inconclusive [inhibitor, partial curve]",–
Cc1[nH][nH]c(=O)c1C=Nc1ccc(C(F)(F)F)cc1,"inconclusive [inhibitor, full curve, poor fit]",–
COc1ccc(NC(=O)CSc2nc3c(c(=O)n2-c2ccccc2OC)SCC3)cc1,"inconclusive [inhibitor, single point]",–
Cn1c(=O)c(NCCO)c2c3c(cccc31)C(=O)c1ccccc1-2,–,inactive: 23.5%
CCCCN(C(=O)C1CCCO1)c1c(N)n(CC(C)C)c(=O)[nH]c1=O (stereo not given),–,inactive: 49.5%
COc1ccc(NC(=O)N2CCCCC2)cc1,–,inactive: 35.8%
Cc1ncoc1C(=O)N1CCc2c([nH]c3ccccc23)C1C1CCCCC1 (stereo not given),active: 14.7 µM,–
Cc1ccc(NC(=O)CN(C)C(=O)c2cccc(S(=O)(=O)N3CCCC3)c2)cc1,"inconclusive [inhibitor, single point]",–
CCCS(=O)(=O)Nc1cc(C(F)(F)F)ccc1OCCOC,"inconclusive [inhibitor, partial curve, poor fit]",–
CC(C)CCNC(=O)c1ccc(Cl)c(NC(=O)Cc2ccccc2)c1,"inconclusive [inhibitor, single point]",–
O=C1NC(=S)N/C1=C\C=C\c1ccccc1,–,inactive: 58.6%
CCOc1ccccc1-n1c(=S)sc2c(=O)n(-c3ccc(F)cc3)c(SCC(=O)O)nc21,"inconclusive [inhibitor, partial curve, poor fit]",–
Cc1c2ccccc2nc2c(F)c(N(C)C)c(F)c(F)c12,–,inactive: -5.07%

Compound,Potency,"activity change, negative = inhibition"
O=C1N/C(=N\c2ccccn2)SC1Cc1ccccc1Cl (stereo not given),"inconclusive [inhibitor, full curve, poor fit]",–
Cc1ccc(N2CCN(c3ccc(C)cc3)C2c2ccncc2)cc1,"inconclusive [inhibitor, single point]",–
Cc1[nH]c2ccccc2c1C(=O)C(=O)N1c2ccccc2CC1C (stereo not given),active: 6.57 µM,–
CC(C)c1ccc(NC(=O)CSc2nnc(CN3CCOCC3)n2C)cc1,"inconclusive [inhibitor, partial curve]",–
COc1ccc(OC)c(NC(=O)CSc2ccc3nnc(-c4cccnc4)n3n2)c1,"inconclusive [inhibitor, single point]",–
COC(=O)c1c(NC(=O)Cc2ccccc2)sc2c1C(C(=O)OC)CC2 (stereo not given),"inconclusive [inhibitor, single point]",–
Cc1ccc(NC(=S)Nc2cccc3ccccc23)cc1F,"inconclusive [inhibitor, single point]",–
Cc1ccc(NC(=O)c2cc(S(=O)(=O)NCCC3=CCCCC3)ccc2F)cc1F,"inconclusive [inhibitor, single point]",–
Cc1nc2ccccc2c(=O)n1NC(=O)CCC(=O)O,–,inactive: 6.08%
CC(C)(C)c1ccc(C(=O)c2c[nH]c(C(=O)NCC3CCCO3)c2)cc1 (stereo not given),"inconclusive [inhibitor, single point]",–
CCn1c(=O)c(CCC(=O)NCC2CCCO2)c(C)c2c(C)nn(-c3ccccc3)c21 (stereo not given),–,inactive: -17.2%
CCc1cc2c(SCC#N)ncnc2s1,–,inactive: 13.1%
Cc1cccc(NC(=O)C2C3C=CC(O3)C2C(=O)O)c1 (stereo not given),–,inactive: 0%
O=C(c1ccccc1F)N1CCN(c2ccc([N+](=O)[O-])c(NCc3cccnc3)c2)CC1,"inconclusive [inhibitor, single point]",–
CCCNC(=O)c1ccc(N2CCC3(CC2)CC(c2ccccc2)=NO3)c(NC(=O)Cc2ccc(F)cc2)c1,"inconclusive [inhibitor, partial curve, poor fit]",–
O=C(NCCSCc1ccc(Cl)cc1)c1cccs1,active: 3.29 µM,–
Cc1cc(Nc2nc3ccccc3nc2Cl)n(-c2ccccc2C)n1,active: 1.47 µM,–
CC(NC(=O)c1ccc(S(=O)(=O)C(F)F)cc1)c1ccccc1 (stereo not given),"inconclusive [inhibitor, single point]",–
Cc1ccc(Cl)cc1N1CCN(C(=O)C2CCN(S(=O)(=O)c3c(C)nn(C)c3C)CC2)CC1,active: 8.28 µM,–
CCNC(=S)N(Cc1ccc2c(c1)OCO2)C1CC(=O)N(c2ccc(OC)cc2)C1=O (stereo not given),"inconclusive [inhibitor, single point]",–
CC(C)(C)C(=O)Nc1cc(C(F)(F)F)ccc1-n1ccnc1,"inconclusive [inhibitor, single point]",–
CCOc1ccc(S(=O)(=O)NCCC(=O)N2CCN(c3ncccn3)CC2)cc1,"inconclusive [inhibitor, single point]",–

Compound,Potency,"activity change, negative = inhibition"
COc1ccc(NS(=O)(=O)c2ccc(C(=O)N3CCN(Cc4ccccc4)CC3)cc2)cc1,"inconclusive [inhibitor, partial curve, poor fit]",–
CC(=O)N1CCc2cc(S(=O)(=O)NCC(=O)NCc3ccc(Cl)cc3)ccc21,"inconclusive [inhibitor, partial curve, poor fit]",–
COc1cc2c(cc1OC)CN(C(=O)/C=C/c1ccccc1[N+](=O)[O-])CC2,"inconclusive [inhibitor, partial curve]",–
CCOC(=O)c1sc(NC(=O)CSc2nnnn2-c2ccc(C)cc2)c(C(=O)OCC)c1C,"inconclusive [inhibitor, full curve]",–
C#Cc1ccc([C@H]2C=C(C(=O)N3CCOCC3)O[C@@H](OCC)[C@@H]2CCCO)cc1,"inconclusive [inhibitor, partial curve, poor fit]",–
Cc1cc(=O)oc2cc(NC(=O)c3c(Cl)cnn3C)ccc12,–,inactive: 29.2%
COC(=O)c1ccc(N2CCN(C(C)=O)CC2)c(NC(=O)COc2ccccc2C)c1,"inconclusive [inhibitor, partial curve, poor fit]",–
COc1c(C)cc(C(=O)C2CCCN(Cc3cccc4nccnc34)C2)cc1C (stereo not given),"inconclusive [inhibitor, single point]",–
Cc1cccc(N2C(=O)N3[C@H](c4ccc(Cl)cc4)[C@@H]4C(=O)N(C5CCCCC5)C(=O)[C@@H]4[C@]3(Cc3ccc(Cl)cc3)C2=O)c1,"inconclusive [inhibitor, full curve, poor fit]",–
O=C(CCN1CCN(C(c2ccccc2)c2ccccc2)CC1)N/N=C/c1ccc(O)cc1O,"inconclusive [inhibitor, single point]",–
Cc1cccc(N2CCN(C(=O)CCN3C(=S)NC(C)(C)CC3C)CC2)c1C (stereo not given),"inconclusive [inhibitor, partial curve, poor fit]",–
Cn1cnc([N+](=O)[O-])c1SCCO,–,inactive: -6.94%
CCC(=O)N1CCc2cc(S(=O)(=O)NCCC(=O)N3CCN(c4cccc(OC)c4)CC3)ccc21,"inconclusive [inhibitor, partial curve]",–
CCn1c(=S)sc2c(=O)[nH]c(SCC(=O)Nc3cc(OC)ccc3OC)nc21,–,inactive: -4.63%
C=C1c2c(Cl)ccc(O)c2C(O)=C2C(=O)[C@@]3(O)C(O)=C(C(N)=O)C(=O)[C@@H](N(C)C)[C@@H]3[C@@H](O)[C@H]12,active: 4.05 µM,–
NC(=O)CSc1nnc(-c2ccco2)n1-c1ccccc1,–,inactive: -0.613%
CCOC(=O)N1CCN(c2ncnc3scc(-c4ccccc4)c23)CC1,"inconclusive [inhibitor, partial curve]",–
COc1ccc(C(C(=O)NCC2CCCO2)N(C(=O)CNC(=O)c2ccco2)c2cc(C)ccc2C)cc1OC (stereo not given),"inconclusive [inhibitor, single point]",–
O=C(CC1N=C2c3ccccc3N=C(SCc3ccc(Cl)cc3)N2C1=O)NCc1ccco1 (stereo not given),active: 3.29 µM,–
CC1CCc2c(sc3ncnc(SC(C)C(=O)NCC4CCCO4)c23)C1 (stereo not given),"inconclusive [inhibitor, single point]",–
CC(C)c1c(C(=O)N/N=C/c2ccc(C(F)(F)F)cc2)nnn1-c1nonc1N,"inconclusive [inhibitor, single point]",–
